The full ranking holds about 33,000 sequences; the median of “E-score (-0.5 to 0.5)” is about -0.035, and the highest 2% start at about 0.34. Some of the results follow.
Target: T1, Mot3 (UniProt P54785)
T1 sequence: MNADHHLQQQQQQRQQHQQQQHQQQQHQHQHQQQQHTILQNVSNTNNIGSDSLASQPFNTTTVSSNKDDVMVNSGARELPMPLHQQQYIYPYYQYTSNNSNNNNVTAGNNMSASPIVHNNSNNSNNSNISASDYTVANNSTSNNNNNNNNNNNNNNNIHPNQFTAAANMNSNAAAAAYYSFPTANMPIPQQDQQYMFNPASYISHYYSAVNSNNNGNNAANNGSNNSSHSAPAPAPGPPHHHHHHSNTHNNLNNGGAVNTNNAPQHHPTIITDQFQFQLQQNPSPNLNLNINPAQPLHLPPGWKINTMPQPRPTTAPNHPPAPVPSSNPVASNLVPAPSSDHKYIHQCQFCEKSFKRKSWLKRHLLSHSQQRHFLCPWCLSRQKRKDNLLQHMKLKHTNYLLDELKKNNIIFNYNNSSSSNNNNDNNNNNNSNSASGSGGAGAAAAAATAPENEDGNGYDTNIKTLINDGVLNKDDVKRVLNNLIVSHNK
Assay: PBM E-score (8-mer binding enrichment) (E-score (-0.5 to 0.5)); higher = stronger / more preferred TF binding; most listed sequences are background and not binding sites
Settings: protein concentration: 200 nM; construct: GST-full length
Procedure, shortened: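 PURExpress in vitro transcription/translation supplied GST-tagged yeast transcription factors, either full-length or DNA-binding domain. Applied at about 100-200 nM to universal all-10-mer Agilent arrays double-stranded by primer extension, the bound protein was detected with fluorescent anti-GST. E-scores, modified Wilcoxon-Mann-Whitney statistics, were given by the Universal PBM Analysis Suite to ungapped eight-base words pooled with their reverse complements after masliner normalisation.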

Row | Sequence | PBM E-score
1 | GAGACCAA | -0.17
2 | CAATGACA | 0.135
3 | CTACAGCA | 0.0731
4 | ACTAGTAC | 0.00048
5 | CTAGACAG | -0.169
6 | CGTTCTAG | 0.0347
7 | CTCGAAAG | -0.057
8 | ACTCCCAA | -0.0157
9 | CATTAGAA | -0.0351
10 | ACTTACTC | 0.0234
11 | ACTATGAT | -0.0665
12 | ACATTAGC | 0.109
13 | GCACGGCC | 0.0373
14 | ATGGGACA | -0.152
15 | AATGATCG | -0.127
16 | ATTTATAG | 0.00853
17 | ACCACGAG | -0.197
18 | AGCTTGTC | -0.0925
19 | CGCCTCGC | -0.229
20 | CGCCCGTA | -0.0749
21 | CGGACGCA | -0.111
22 | ATATTACG | 0.296

Row | Sequence | PBM E-score
23 | CCACCCCA | 0.00669
24 | AATGGTAA | 0.0597
25 | CAAACTGA | -0.0656
26 | CGCCTGAG | -0.133
27 | GAAATAAA | 0.0179
28 | ACACACCT | 0.209
29 | CGACCGCG | -0.191
30 | CATAAGTA | -0.0467
31 | AAGAAACA | 0.19
32 | TACCACTA | -0.0713
33 | GGGCACCC | -0.0287
34 | ACCAGTAT | -0.154
35 | GAGGCCAA | -0.166
36 | CCGATTAC | 0.163
37 | AATTGAGA | -0.0846
38 | CAGGACAG | -0.199
39 | ATCAAATC | -0.0985
40 | CGGGAGGA | -0.143
41 | AGGGCAGG | 0.0389
42 | AGAATACA | 0.278
43 | GATGGCGA | -0.102
44 | CGTTTCAA | 0.0554

Row | Sequence | PBM E-score
45 | ATTGGATA | -0.143
46 | TGCTAACA | 0.099
47 | AATATCGT | 0.149
48 | GTAGACCA | 0.00217
49 | AAATTTCA | 0.0517
50 | ACTGGGTA | -0.189
51 | ATCTTATG | -0.0202
52 | ACCTGGCA | -2e-05
53 | ACAACATC | 0.195
54 | TATATTGA | -0.0227
55 | ATCCGATC | 0.00223
56 | GCTTATCA | -0.158
57 | AATAACGC | 0.217
58 | CTAAAAGA | -0.11
59 | CCTAAGTA | 0.164
60 | AACGGCCT | -0.267
61 | CCGGTGTA | 0.0449
62 | AGTTAGAA | -0.0798
63 | GGTGAACC | -0.167
64 | CTCGTGGC | -0.134
65 | CCCCGATA | -0.0851
66 | AGTCTATC | 0.00491

Row | Sequence | PBM E-score
67 | CCCTTAAG | 0.194
68 | AGTGGCTG | -0.289
69 | AGGCCTGA | -0.288
70 | CACACTTA | 0.0972
71 | GCAACGTA | 0.113
72 | GAGGAGTA | -0.0693
73 | AGCACTAT | 0.103
74 | CGATCCAA | -0.1
75 | ATCGAATG | -0.0374
76 | CTATGTAA | 0.41
77 | GGATCATA | -0.23
78 | TAGGTGGA | 0.094
79 | CCATATAG | -0.187
80 | AACTAGTT | 0.0146
81 | GTTCTCCA | -0.106
82 | CGACCAAA | 0.104
83 | CGTATGGA | -0.165
84 | AAATATAC | 0.0863
85 | CCAACTGG | -0.281
86 | ATTAACTA | 0.064
